Source: patent US20250333445A1 (ONCOPEPTIDES INNOVATION 1, published 2025)
Substitutions are numbered along the chain they refer to.

B1: H_aBCMA-1-E6_15 aa_aCD16-A10(34a-D10)_His6c_OH (designed binder)
chain: VDNKFNKENQFADEEIAALPNLNFYQKWAFIRKLMDDPSQSANLLAEAKKLNDAQAPKGGGSGGGGSGGGGSGVDNKFNKEQQEAQLEIRRLPNLNHHQVFAFIKSLLDDPSQSANLLAEAKKLNDAQAPK
B2: H_aBCMA-1-E6_15 aa_aCD16-A10(34a-A11)_His6c_OH (designed binder)
chain: B1 chain with E84I, L87Y, R91K, V100T
B3: 1-E6-(GGGSG)3-A10*-YY-His6 with A10* = SEQ ID 39 (designed binder)
chain: VDNKFNKENQFADEEIAALPNLNFYQKWAFIRKLMDDPSQSANLLAEAKKLNDAQAPKGGGSGGGGSGGGGSGVDNKFNKEIQNAQWEIRHLPNLNHHQTFAFIQKLIDDPSQSANLLAEAKKLNDAQAPKYYHHHHHH
B4: 1-E6-(GGGSG)3-A10*-YY-His6 with A10* = SEQ ID 40 (designed binder)
chain: B3 chain with I82V, N84T, T100K, Q105R, K106S, I108S
B5: 1-E6-(GGGSG)3-A10*-YY-His6 with A10* = SEQ ID 41 (designed binder)
chain: B3 chain with I82Q, N84F, W87Q, H91K, T100R, Q105R, K106S
B6: 1-E6-(GGGSG)3-A10*-YY-His6 with A10* = SEQ ID 42 (designed binder)
chain: B3 chain with I82L, N84A, W87V, H91K, Q105K, K106S
B7: 1-E6-(GGGSG)3-A10*-YY-His6 with A10* = SEQ ID 44 (designed binder)
chain: B3 chain with I82F, N84S, W87V, T100K, K106S
B8: 1-E6-(GGGSG)3-A10*-YY-His6 with A10* = SEQ ID 45 (designed binder)
chain: B3 chain with I82K, N84Q, W87Y, T100A
B9: 1-E6-(GGGSG)3-A10*-YY-His6 with A10* = SEQ ID 46 (designed binder)
chain: B3 chain with I82Y, N84Y, W87K, H91T, T100R, Q105K, K106S, I108L
B10: 1-E6-(GGGSG)3-A10*-YY-His6 with A10* = SEQ ID 47 (designed binder)
chain: B3 chain with I82Y, N84Q, W87Q, H91V, T100K
B11: 1-E6-(GGGSG)3-A10*-YY-His6 with A10* = SEQ ID 50 (designed binder)
chain: B3 chain with I82F, N84I, W87R, H91D, T100I, K106S
B12: 1-E6-(GGGSG)3-A10*-YY-His6 with A10* = SEQ ID 52 (designed binder)
chain: B3 chain with I82Q, N84W, W87R, H91S, T100V, Q105N, K106S, I108L
B13: 1-E6-(GGGSG)3-A10*-YY-His6 with A10* = SEQ ID 53 (designed binder)
chain: B3 chain with I82L, N84Y, W87V, H91K, T100R, Q105K, K106S, I108L
B14: 1-E6-(GGGSG)3-A10*-YY-His6 with A10* = SEQ ID 54 (designed binder)
chain: B3 chain with I82Y, N84E, W87L, H91N, T100I, Q105N
B15: 1-E6-(GGGSG)3-A10*-YY-His6 with A10* = SEQ ID 57 (designed binder)
chain: B3 chain with I82F, N84Q, Q86A, W87R, H91V, T100I, Q105K, K106S, I108L
B16: 1-E6-(GGGSG)3-A10*-YY-His6 with A10* = SEQ ID 58 (designed binder)
chain: B3 chain with I82L, N84A, W87V, H91T, T100V
B17: 1-E6-(GGGSG)3-A10*-YY-His6 with A10* = SEQ ID 61 (designed binder)
chain: B3 chain with I82L, N84V, W87H, H91F, T100K, Q105N
B18: 1-E6-(GGGSG)3-A10*-YY-His6 with A10* = SEQ ID 62 (designed binder)
chain: B3 chain with I82V, N84I, W87L, H91A, T100I, Q105K, I108H
B19: 1-E6-(GGGSG)3-A10*-YY-His6 with A10* = SEQ ID 63 (designed binder)
chain: B3 chain with I82F, N84A, W87Q, H91R, T100A, Q105R, K106S, I108L
B20: H_aBCMA-1-E6_15 aa_aCD16-A10(2a-E06)_His6c_OH (designed binder)
chain: B3 chain with I82L, N84Y, W87K, H91R, T100V, Q105N
B21: H_aBCMA-1-E6_15 aa_aCD16-A10(2b-G11)_His6c_OH (designed binder)
chain: B3 chain with I82V, N84I, W87T, H91S, T100V, K106S
B22: H_aBCMA-1-E6_15 aa_aCD16-A10(34b-C3-2)_His6c_OH (designed binder)
chain: B3 chain with N84H, T100Q, Q105K, K106S
B23: 1-E6-(GGGSG)3-A10*-YY-His6 with A10* = SEQ ID 59 (designed binder)
chain: B3 chain with I82L, N84F, W87R, H91A, T100I, Q105R, K106S, I108L

Legend:
[1] = target: T1, hCD16a V158 (Cat. no. CD8-H52H4, Acro Biosystems) (human, UniProt P08637 17-208); test: SPR, 1-E6-(GGGSG)3-A10*-YY-His6 fusion over immobilised receptor [f]
T1 construct: also called human CD16a V158; hCD16a V158 allotype

[2] = target: T2, hCD16a F158 (Cat. no. CDA-H5220, Acro Biosystems) (human, UniProt P08637 17-208); test: as above
T2 construct: also called human CD16a F158; hCD16a F158 allotype

CD16b NA1 [3] = target: T3, CD16b NA1 (human, UniProt O75015); test: SPR, 1-E6-(GGGSG)3-A10*-YY-His6 fusion; CD16b set-up not described [f]
T3 construct: also called CD16b (NA1 form)

CD16b NA2 [4] = target: T4, CD16b NA2 (human, UniProt O75015); test: as above
T4 construct: also called CD16b (NA2 form)

[5] = target: T2, hCD16a F158 (Cat. no. CDA-H5220, Acro …); test: SPR (Biacore 8K), serial dilutions over immobilised hCD16a F158, 1:1 Langmuir model
[6] = target: T1, hCD16a V158 (Cat. no. CD8-H52H4, Acro …); test: SPR, 1-E6-(GGGSG)3-A10*-YY-His6 fusion over immobilised receptor [c]
[7] = target: T2, hCD16a F158 (Cat. no. CDA-H5220, Acro …); test: as above
CD16b NA1 [8] = target: T3, CD16b NA1; test: SPR, 1-E6-(GGGSG)3-A10*-YY-His6 fusion; CD16b set-up not described [c]
CD16b NA2 [9] = target: T4, CD16b NA2; test: as above

Row | Kd [1] [nM] | Kd [2] [nM] | koff [2] [s⁻¹] | kon [2] [M⁻¹ s⁻¹] | Kd (CD16b NA1 [3]) [nM] | Kd (CD16b NA2 [4]) [nM] | Kd [5] [nM] | koff [5] [s⁻¹] | kon [5] [M⁻¹ s⁻¹] | Kd [6] [nM] | Kd [7] [nM] | koff [7] [s⁻¹] | kon [7] [M⁻¹ s⁻¹] | Kd (CD16b NA1 [8]) [nM] | Kd (CD16b NA2 [9]) [nM] | Binder
1 | 87 | 87 | 0.005 | 58000 | 38 | 151 | 87 | 0.005 | 58000 | – | – | – | – | – | – | B1
2 | 4 | 5 | 0.00026 | 58000 | 27 | 16 | 5.2 | 0.00035 | 66000 | – | – | – | – | – | – | B2
3 | 136 | 153 | 0.03 | 200000 | 87 | 230 | – | – | – | – | – | – | – | – | – | B3
4 | 111 | 126 | 0.1 | 810000 | 82 | 267 | – | – | – | – | – | – | – | – | – | B4
5 | 312 | 393 | 140 | 3.6e+08 | 135 | 455 | – | – | – | – | – | – | – | – | – | B5
6 | 151 | 171 | 0.098 | 580000 | 92 | 228 | – | – | – | – | – | – | – | – | – | B6
7 | 373 | 438 | 4.5 | 1e+07 | 195 | 593 | – | – | – | – | – | – | – | – | – | B7
8 | 96 | – | – | – | 213 | 214 | – | – | – | – | – | – | – | – | – | B8
9 | 197 | 224 | 6.2 | 2.8e+07 | 101 | 397 | – | – | – | – | – | – | – | – | – | B9
10 | 2480 | 2840 | 0.026 | 9200 | 588 | 2140 | – | – | – | – | – | – | – | – | – | B10
11 | 515 | 614 | 4.9 | 8e+06 | 177 | 618 | – | – | – | – | – | – | – | – | – | B11
12 | 163 | 186 | 0.037 | 200000 | 54 | 278 | – | – | – | – | – | – | – | – | – | B12
13 | 41 | 39 | 0.0049 | 130000 | 21 | 77 | 39 | 0.0049 | 130000 | – | – | – | – | – | – | B13
14 | 418 | 486 | 0.14 | 290000 | 240 | 663 | – | – | – | – | – | – | – | – | – | B14
15 | 401 | 472 | 11 | 2.3e+07 | 251 | 554 | – | – | – | – | – | – | – | – | – | B15
16 | 241 | 266 | 0.03 | 110000 | 133 | 373 | – | – | – | – | – | – | – | – | – | B16
17 | 187 | 213 | 0.068 | 320000 | 133 | 328 | – | – | – | – | – | – | – | – | – | B17
18 | 204 | 234 | 0.6 | 2.6e+06 | 126 | 304 | – | – | – | – | – | – | – | – | – | B18
19 | 219 | 248 | 7.5 | 3e+07 | 85 | 289 | – | – | – | – | – | – | – | – | – | B19
20 | – | – | – | – | – | – | 50 | 0.0048 | 94000 | 53 | 50 | 0.0048 | 94000 | 13 | 94 | B20
21 | 273 | 293 | 0.014 | 48000 | 138 | 450 | – | – | – | – | – | – | – | – | – | B21
22 | – | – | – | – | – | – | 87 | 0.0062 | 71000 | 85 | 87 | 0.0062 | 71000 | 46 | 192 | B22
23 | 181 | 192 | 0.0057 | 29000 | 52 | 257 | – | – | – | – | – | – | – | – | – | B23
